# Data reported in a collection of fitness landscapes (doi:10.1016/j.celrep.2020.107928).
# In all, about 81,000 sequences were measured (“one-hybrid fitness for binding NBS DNA”: median about -0.1, highest 2% from about 0.36 on). This is one part of the list.
# B1: Caulobacter ParB omega fusion; a variant is named by its letters at X, in order, B8GW30 (parent)
# chain: MESVVVGEPGMSEGRRGLGRGLSALLGEVDAAPAQAPGEQLGGSREAPIEILQRNPDQPRRTFREEDLEDLSNSIREKGVLQPILVRPSPDTAGEYQIVAGERAWRAAQRAGLKTVPIMVRELDDLAVLEIGIIENVQRADLNVLEEALSYKVLMEKFERTQENIAQTIGKSXSHVANXMRLLXLPDEVQSYLVSGELTAXHARAIAAAADPVALAKQIIEGGLSVRETEALARKAPNLSAGKSKGGRPPRVKDTDTQALESDLSSVLGLDVSIDHRGSTGTLTITYATLEQLDDLCNRLTRGI
# Variants of: B1
# Assay: one-hybrid fitness for binding NBS DNA (the Noc-binding site; scaled: cognate 1, non-cognate 0); higher = stronger binding
# Conditions: with NBS DNA site
# Outline: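 Bacterial one-hybrid selection in E. coli USO rpoZ- hisB- pyrF- with a HIS3 reporter carrying the site 19 bp from the promoter, screening Caulobacter ParB libraries with four specificity codons randomised (NNS). Cells grew 48 hours at 37°C on M9-minus-histidine plus 0.1 mM IPTG and 5 mM 3-AT. Plasmids before and after selection were Illumina-sequenced, three replicate libraries pooled, and variants under 10 reads dropped. Fitness is the log change in variant-to-wild-type read ratio, rescaled to cognate 1, non-cognate 0.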
row,Variant,one-hybrid fitness for binding NBS DNA
1,RIHL,≤ 0.2
2,QYSN,≤ 0.2
3,RMYS,0.361
4,VFRW,≤ 0.2
5,PLMW,≤ 0.2
6,YQDY,≤ 0.2
7,NRFF,≤ 0.2
8,KMPC,≤ 0.2
9,QAWC,≤ 0.2
10,QGPS,≤ 0.2
11,MHTC,≤ 0.2
12,SQWF,≤ 0.2
13,AVYG,≤ 0.2
14,IPCG,≤ 0.2
15,ACSY,≤ 0.2
16,PPYW,≤ 0.2
17,AYLI,≤ 0.2
18,RKNV,≤ 0.2
19,SPHT,≤ 0.2
20,RVWS,0.225
21,KHYE,≤ 0.2
22,YMRT,≤ 0.2
23,KHRA,≤ 0.2
24,DTRW,≤ 0.2
25,KAKA,≤ 0.2
26,DPHY,≤ 0.2

row,Variant,one-hybrid fitness for binding NBS DNA
1,VQRC,≤ 0.2
2,ACYN,≤ 0.2
3,DSLF,≤ 0.2
4,QMEL,≤ 0.2
5,DRPY,≤ 0.2
6,SRAA,≤ 0.2
7,PTRP,≤ 0.2
8,DNYS,≤ 0.2
9,RSCS,0.343
10,GPDV,≤ 0.2
11,ETES,≤ 0.2
12,RMDK,≤ 0.2
13,WRVG,≤ 0.2
14,KARC,≤ 0.2
15,TLQI,≤ 0.2
16,KKTT,0.325
17,QAVA,≤ 0.2
18,QMTN,≤ 0.2
19,VVKL,≤ 0.2
20,TFEV,≤ 0.2
21,VDSI,≤ 0.2
22,TKGL,≤ 0.2
23,RNQD,≤ 0.2
24,CFEL,≤ 0.2
25,RMLV,≤ 0.2
26,SMIG,≤ 0.2

row,Variant,one-hybrid fitness for binding NBS DNA
1,IHNT,≤ 0.2
2,KNTA,≤ 0.2
3,RRYR,0.728
4,AYWT,≤ 0.2
5,PLVL,≤ 0.2
6,NAHR,≤ 0.2
7,LHSK,≤ 0.2
8,IHPM,≤ 0.2
9,GIST,≤ 0.2
10,CIMS,≤ 0.2
11,ELEF,≤ 0.2
12,LKKA,≤ 0.2
13,EAPQ,≤ 0.2
14,HTNP,≤ 0.2
15,QIML,≤ 0.2
16,VEMW,≤ 0.2
17,AYTG,≤ 0.2
18,GSAK,≤ 0.2
19,PQAL,≤ 0.2
20,TDWR,≤ 0.2
21,VDSV,≤ 0.2
22,LTWW,≤ 0.2
23,SKYT,≤ 0.2
24,MRLS,≤ 0.2
25,CLPD,≤ 0.2
26,RLNE,≤ 0.2

row,Variant,one-hybrid fitness for binding NBS DNA
1,GICG,≤ 0.2
2,PNEC,≤ 0.2
3,TFHD,≤ 0.2
4,QDTY,≤ 0.2
5,LHDW,≤ 0.2
6,TYPV,≤ 0.2
7,TMWR,≤ 0.2
8,CLIS,≤ 0.2
9,TRIN,≤ 0.2
10,PTAG,≤ 0.2
11,LWPH,≤ 0.2
12,DKCH,≤ 0.2
13,EASL,≤ 0.2
14,LPGD,≤ 0.2
15,RPVN,≤ 0.2
16,PTFG,≤ 0.2
17,YDSM,≤ 0.2
18,IMLG,≤ 0.2
19,VRCV,≤ 0.2
20,RCRD,≤ 0.2
21,KETH,≤ 0.2
22,DQTR,≤ 0.2
23,FNWS,≤ 0.2
24,CKNS,≤ 0.2
25,MLEG,≤ 0.2
26,GVTI,≤ 0.2

row,Variant,one-hybrid fitness for binding NBS DNA
1,VVPM,≤ 0.2
2,RDTH,≤ 0.2
3,PERT,≤ 0.2
4,LHPK,≤ 0.2
5,RCGA,0.259
6,KDLT,≤ 0.2
7,VCNI,≤ 0.2
8,RYTY,≤ 0.2
9,EARF,≤ 0.2
10,LTQS,≤ 0.2
11,KMIS,≤ 0.2
12,MTSK,≤ 0.2
13,NNCK,≤ 0.2
14,PVEG,≤ 0.2
15,ARDL,≤ 0.2
16,MAPG,≤ 0.2
17,LQEN,≤ 0.2
18,TGSF,≤ 0.2
19,LLRR,≤ 0.2
20,SVTI,≤ 0.2
21,ILLW,≤ 0.2
22,QNPA,≤ 0.2
23,TYTR,≤ 0.2
24,HSAD,≤ 0.2
25,LHHF,≤ 0.2
26,RVHE,≤ 0.2

row,Variant,one-hybrid fitness for binding NBS DNA
1,TYTD,≤ 0.2
2,SHIA,≤ 0.2
3,ERDT,≤ 0.2
4,QFCC,≤ 0.2
5,DLPC,≤ 0.2
6,GHRE,≤ 0.2
7,YDKS,≤ 0.2
8,GTCG,≤ 0.2
9,LCGW,≤ 0.2
10,GMQT,≤ 0.2
11,RKRY,0.366
12,IHDP,≤ 0.2
13,ELVC,≤ 0.2
14,STRI,≤ 0.2
15,ARLV,≤ 0.2
16,RFWA,≤ 0.2
17,AMLT,≤ 0.2
18,SAQV,≤ 0.2
19,LVGI,≤ 0.2
20,PSCF,≤ 0.2
21,QNQG,≤ 0.2
22,MAQE,≤ 0.2
23,EALI,≤ 0.2
